According to PubChem BioAssay AID488969 (Vanderbilt High Throughput Screening Facility, 2010):
The full ranking holds about 110,000 compounds; the median of “z-score” is about -0.1, and the highest 2% start at about 2. The list shows a part of the results. Active and inactive are the calls of the source.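 Rule for the calls: active = z-score in the third read window above 3 or below -3; inactive = the rest.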

What follows are compounds tested against Metabotropic glutamate receptor 8 (Rattus norvegicus) (UniProt P70579) (assay: rat mGluR8 modulators via GIRK flux, primary screen, cell-based, thallium flux, HTS (AID 488969)). Conditions: HEK293 rat mGluR8, GIRK (G protein-gated inwardly rectifying potassium channel) thallium flux, FluoZin2; at 10 µM; stronger effect = higher value; submaximal glutamate (EC20) added with thallium.
Chain of UniProt P70579 (P70579 whole entry, looked up): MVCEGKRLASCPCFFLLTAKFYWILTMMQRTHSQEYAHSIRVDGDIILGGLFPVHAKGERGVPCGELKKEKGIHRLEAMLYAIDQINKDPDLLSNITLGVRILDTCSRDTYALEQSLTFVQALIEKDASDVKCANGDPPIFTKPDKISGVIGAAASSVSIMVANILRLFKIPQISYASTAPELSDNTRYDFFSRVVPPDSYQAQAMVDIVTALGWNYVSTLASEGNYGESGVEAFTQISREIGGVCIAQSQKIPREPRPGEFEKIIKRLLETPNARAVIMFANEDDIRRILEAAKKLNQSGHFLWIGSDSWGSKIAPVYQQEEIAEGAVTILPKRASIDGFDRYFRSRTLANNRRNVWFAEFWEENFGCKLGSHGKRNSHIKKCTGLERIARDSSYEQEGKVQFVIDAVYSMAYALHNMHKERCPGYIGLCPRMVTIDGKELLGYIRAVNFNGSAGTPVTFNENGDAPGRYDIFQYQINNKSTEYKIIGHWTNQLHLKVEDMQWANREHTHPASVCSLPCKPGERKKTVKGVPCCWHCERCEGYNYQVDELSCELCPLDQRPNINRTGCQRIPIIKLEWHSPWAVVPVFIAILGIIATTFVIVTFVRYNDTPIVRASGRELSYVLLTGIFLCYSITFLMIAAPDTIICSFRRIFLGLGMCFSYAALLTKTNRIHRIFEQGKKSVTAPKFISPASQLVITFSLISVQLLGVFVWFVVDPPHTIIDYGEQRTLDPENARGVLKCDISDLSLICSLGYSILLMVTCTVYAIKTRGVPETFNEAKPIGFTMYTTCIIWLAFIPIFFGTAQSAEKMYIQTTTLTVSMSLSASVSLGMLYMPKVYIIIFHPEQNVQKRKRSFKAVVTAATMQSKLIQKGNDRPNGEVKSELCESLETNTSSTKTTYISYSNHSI
For `CCCCC(=O)Nc1ccc2c(c1)oc1ccccc12`, the z-score was -0.0389. `CC(NC(=O)OCc1ccccc1)C(=O)OCN1C(=O)c2ccccc2C1=O` (stereo not drawn) showed a z-score of -1.16. With `CCCOC(=O)C1C2C=C[C@]3(CN(CCc4ccccc4)C(=O)[C@H]13)O2` (stereo partly drawn) the z-score was -0.0436. `Cc1nn(Cc2ccc([N+](=O)[O-])cc2)c(=O)n1-c1c(F)cccc1F` was tested, and the z-score was 0.0221. `CCCCNC(=O)C1CCCN1C(=O)NC1CCCCC1` (stereo not drawn) was tested, and the z-score was 0.126. With `Cc1cc(C)c(NC(=O)CSc2nnc(SCC(=O)Nc3c(C)cc(C)cc3C)n2N)c(C)c1` the z-score was 1.72. Work on `S=C1NC(c2ccccc2)=NCN1c1ccccc1` yielded a z-score of 0.145. `COc1ccccc1NC(=O)c1ccc(Br)o1` was tested, and the z-score was 0.433. `OCCCCNc1cccc2ccccc12` was tested, and the z-score was 1.32. Compound `CCN(Cc1ccccc1)C(c1ccc(C(F)(F)F)cc1)c1nnnn1C(C)(C)C` (stereo not drawn) has a z-score of 0.374. `CCCCC1CC(C)(C(=O)CSc2nc3ccccc3s2)OC1=O` (stereo not drawn) showed a z-score of -0.399. In the case of `O=S(Cc1ccc(Cl)cc1)CC(O)(c1ccccc1)c1ccccc1` (stereo not drawn), the z-score was -0.677. In the case of `O=C(COc1ccc(Cl)cc1)Nc1nnc(-c2ccc3c(c2)CCCC3)o1`, the z-score was -0.441. In the case of `COc1ccc(-c2nc(C)ncc2N=Nc2ccccc2)cc1`, the z-score was -0.33. `O=C1CC(N2CCN(c3nc4ccccc4s3)CC2)C(=O)N1Cc1cccs1` (stereo not drawn) was tested, and the z-score was 1.02. Compound `CCCCn1nc(C(=O)O)ccc1=O` has a z-score of -0.165. In the case of `COc1ccccc1-c1cc(C(F)(F)F)nc(S(=O)(=O)CCCC(=O)O)n1`, the z-score was -0.104. In the case of `O=c1cc(N2CCN(c3ccc(F)cc3)CC2)[nH]c(=O)n1C1CCCCC1`, the z-score was -0.16. With `COc1ccc(OCC(=O)NC(=S)Nc2ccc(S(=O)(=O)Nc3cc(OC)nc(OC)n3)cc2)cc1` the z-score was -0.254. Work on `Cc1sc(NC(=O)c2ccco2)c(C(c2cccnc2)N2CCN(C)CC2)c1C` (stereo not drawn) yielded a z-score of -0.0535. `CCC(C)[C@H](NC(=O)OC(C)(C)C)c1nnc(SCc2c(C)[nH]c(=O)[nH]c2=O)o1` (stereo partly drawn) was tested, and the z-score was -0.262. In the case of `Cc1ccc(NC(=S)NCc2ccccc2)cc1[N+](=O)[O-]`, the z-score was active: 3.51. With `CCC(c1nnnn1Cc1ccco1)N1CCN(C(=O)c2ccco2)CC1` (stereo not drawn) the z-score was -0.202. Work on `CCOC(=O)CC1C(=O)NCCN1Cc1cccc(C(F)(F)F)c1` (stereo not drawn) yielded a z-score of -0.291. `O=S(=O)(NCC1CCCO1)c1cccc(S(=O)(=O)N2CCCC2)c1` (stereo not drawn) gave a z-score of 0.385. In the case of `CC(Oc1ccc(F)cc1)C(=O)NN` (stereo not drawn), the z-score was -0.308. `CCn1c(SCC(=O)Nc2ccccc2N2CCOCC2)nnc1-c1ccccc1O` was tested, and the z-score was -0.701. `CCS(=O)(=O)c1nc2ccccc2n1Cc1ccccc1Cl` showed a z-score of -0.725. In the case of `CCOc1ccccc1CN1C(=O)NC(C)(c2ccccc2)C1=O` (stereo not drawn), the z-score was -1.62. In the case of `O=C(Nc1ccccc1)Nc1nncs1`, the z-score was 0.101. `C=CCNc1nc(-c2cc3ccccc3o2)cs1` was tested, and the z-score was -0.118. In the case of `CC(C)N(C(=O)Cn1c(SCC(=O)Nc2nccs2)nc2ccccc21)C(C)C`, the z-score was 0.8. Work on `COC(=O)c1ccc(N2CCN(S(=O)(=O)c3c(C)cc(C)cc3C)CC2)c([N+](=O)[O-])c1` yielded a z-score of 0.129. Work on `COc1ccccc1C1SCCN1C(=O)c1ccc([N+](=O)[O-])cc1` (stereo not drawn) yielded a z-score of -0.101. Compound `Cc1ccc(CN2C(=O)c3ccccc3C2C(=O)NCc2cccnc2)cc1` (stereo not drawn) has a z-score of 1.24. In the case of `Cc1cc(C)n(S(=O)(=O)c2cc(C)c(C)cc2C)n1`, the z-score was -0.084. With `CC1(CCc2ccc(O)cc2)NC(=O)NC1=O` (stereo not drawn) the z-score was 0.0371. Work on `CC1CCCCC1NC(=O)C(Cc1ccccc1)NS(=O)(=O)c1cccs1` (stereo not drawn) yielded a z-score of 0.146. Work on `Cc1c(Cl)cccc1NC(=O)CCC(=O)NNC(=O)c1ccco1` yielded a z-score of -0.104. `O=C(CSc1nnc(-c2ccccc2O)o1)N1CCc2ccccc2C1` was tested, and the z-score was -0.614. `O=C(Nc1ccccc1)c1nn(-c2ccccc2)c(=O)cc1C(F)(F)F` showed a z-score of -0.145. `COC(=O)C(N)Cc1ccc(O)c(O)c1` (stereo not drawn) was tested, and the z-score was -0.0766. `COc1ccc(S(=O)(=O)N(C(=O)c2ccncc2)c2ccc3oc4c(c3c2)CCCC4)cc1` was tested, and the z-score was -0.218. `CSc1nc(-c2ccccc2)cc(C(F)(F)F)c1C#N` showed a z-score of -0.119. For `COc1ccc(Nc2nc(N)nc(COc3ccc(OC)cc3)n2)cc1`, the z-score was -0.113. `Cn1c(SCc2nn[nH]n2)nc2c1c(=O)n(Cc1ccccc1Cl)c(=O)n2C` was tested, and the z-score was -0.14. For `Fc1ccc(-c2nnc3ccc(N4CCc5ccccc5C4)nn23)cc1`, the z-score was 2.89. `CC(=O)c1ccc(NC(=O)CC(NCCC2=CCCCC2)C(=O)O)cc1` (stereo not drawn) gave a z-score of 0.55. In the case of `Cc1nc(SC2CC(=O)N(c3ccccc3)C2=O)nc2c1CCCC2` (stereo not drawn), the z-score was -1.76. `O=C(O)c1nn(-c2ccccc2)c(-c2ccccc2)c1C(=O)c1ccccc1` gave a z-score of -0.241. For `CCC1S/C(=N/N=C/c2ccco2)NC1=O` (stereo not drawn), the z-score was -0.425. With `CCn1c(CCNC(=O)c2cccs2)nnc1SCC(=O)Nc1ccc(Cl)cc1` the z-score was -0.883. `Cc1ccc2oc(-c3ccccc3)c(C(=O)O)c(=O)c2c1` was tested, and the z-score was 0.496. For `COc1ccc(NC(=O)CC2C(=O)N(C)C(=S)N2Cc2ccco2)cc1` (stereo not drawn), the z-score was 0.0416. In the case of `CCCCCC[n+]1c(-c2ccc(Cl)cc2Cl)csc1Nc1ccccc1`, the z-score was -0.156. `c1ccc(COc2ccc(CNn3cnnc3)cc2)cc1` showed a z-score of 0.241. With `COc1cc(-c2nnc(COc3ccc(Cl)cc3C)o2)cc(OC)c1OC` the z-score was 0.0119. Compound `C=CCn1c(=O)c2ccccc2n2c(SCC(=O)/C(C#N)=C(\C)N)nnc12` has a z-score of -1.28. For `CCCCNC(=O)c1ccc(N2CCC3(CC2)OCCO3)c([N+](=O)[O-])c1`, the z-score was -0.757. Compound `Oc1ccc(-c2nc3ncccn3c2Nc2ccc3c(c2)OCCO3)cc1` has a z-score of -0.591. `Cc1cc(C)c(C(=O)/C=C/c2ccc(C(C)C)cc2)c(=O)[nH]1` was tested, and the z-score was -1.19. `COc1ccccc1N1CCN(Cc2cc(=O)n3ccsc3n2)CC1` gave a z-score of -0.118. For `N#C/C(C(=O)NCc1ccccc1)=C1\SC(CCO)C(=O)N1c1ccccc1` (stereo not drawn), the z-score was -0.123. In the case of `Cn1c(=O)c2c(nc(NCc3ccc4c(c3)OCO4)n2C)n(C)c1=O`, the z-score was 0.176. `CSc1ccc(S(=O)(=O)NCc2ccc(Cl)cc2)cc1` gave a z-score of -0.339. Compound `N#Cc1cc(-c2ccccc2)cn(Cc2c(Cl)cccc2Cl)c1=O` has a z-score of -0.0549. In the case of `COC(=O)c1cn[nH]c1NC(=S)Nc1ccccc1C`, the z-score was -0.126. In the case of `CC(=O)c1sc(NC(=O)c2ccc(C)cc2)nc1C`, the z-score was -0.377. `COC(=O)c1ccc(C(=O)NC(=S)Nc2nc3c(s2)CC(C)CC3)cc1` (stereo not drawn) was tested, and the z-score was 0.17. Work on `CN1/C(=C\C(=O)CSc2nnc(N)s2)C(C)(C)c2ccccc21` yielded a z-score of -0.275. Compound `CC1(C)CC(=O)C=C(Nc2ccccc2NC(=O)c2cnccn2)C1` has a z-score of -0.231. Work on `O=C(Cc1csc(-c2ccccc2)n1)NCc1ccc(F)cc1` yielded a z-score of -0.252. In the case of `CCCS(=O)(=O)N1CCCC(C(=O)NCCCN(Cc2ccccc2)C(C)C)C1` (stereo not drawn), the z-score was 0.0261. Compound `CC1(C)Cc2c(c(N3CCOCC3)nc3sc4c(=O)[nH]cnc4c23)CS1` has a z-score of -1.17. For `CC(=O)N1CCN(C(=S)c2ccc(-c3ccc(Cl)cc3)o2)CC1`, the z-score was -0.00435. For `Cc1cccc(-c2cc3nc4c(c(N5CCC6(CC5)OCCO6)n3n2)CCCC4)c1`, the z-score was 0.391. `C/C(=N\Nc1nc2ccccc2s1)c1ccc2c(c1)OCO2` was tested, and the z-score was -0.286. For `CSc1cccc(NC(=O)CN(c2ccc(C)cc2C)S(C)(=O)=O)c1`, the z-score was active: 3.01. `O=C(NC1CCCCC1)C(c1ccco1)N(C(=O)C(F)(F)F)C1CC1` (stereo not drawn) showed a z-score of -0.066. Compound `Cc1ccc(C(=O)c2ccccc2C(=O)O)c(O)c1` has a z-score of 0.0184. With `COC(=O)c1cc2ccccc2oc1=O` the z-score was -0.0937. `COc1cccc(N(C(C)=O)c2nc(C)cc(C)c2C#N)c1` showed a z-score of -0.258. Compound `Cn1c(SCC(N)=O)nnc1-c1ccccc1` has a z-score of 0.403. In the case of `O=C1CN(c2ccc(Cl)cc2)C2(CCCCC2)S1`, the z-score was -0.106. With `Nc1nc(N2CCCCC2)nc(N2CCCCC2)n1` the z-score was -0.226. For `CC1(C)SCC2C(=O)N3C(CSC3(C)C)C(=O)N21` (stereo not drawn), the z-score was -0.292. With `COCCCNC(=O)C1CC(=O)N(CCc2ccccc2)C1` (stereo not drawn) the z-score was -0.202. `CNC(=O)c1cc(S(=O)(=O)N(C)C)ccc1Cl` was tested, and the z-score was -0.308. `COc1cccc(CNC(=O)C2CCN(S(=O)(=O)c3ccc(F)cc3)CC2)c1` showed a z-score of -0.472. `Cc1cc2cc3c(N)[nH]nc3nc2cc1C` gave a z-score of -0.232. Compound `O=C(N/N=C1\CCCc2ccccc21)C(O)c1ccccc1` (stereo not drawn) has a z-score of 0.283. In the case of `Oc1csc(Cc2nc(-c3ccc(-c4ccccc4)cc3)cs2)n1`, the z-score was -0.229. With `CCOC(=O)C(=Cc1ccc(OCc2ccc([N+](=O)[O-])cc2)c(OC)c1)C(=O)OCC` the z-score was -0.114. `O=C(c1ccc(NS(=O)(=O)c2cccc3cccnc23)cc1)N1CCOCC1` showed a z-score of 0.74. Work on `C=CCn1c(SCC(=O)NCc2ccco2)nc2sc3c(c2c1=O)CCCCC3` yielded a z-score of 0.0377. `COc1ccc(NC(=O)N2CCN(CCC#N)CC2)cc1` was tested, and the z-score was -0.122. With `Cc1cccn2c(=O)c(/C=C(\C#N)C(=O)NC3CCS(=O)(=O)C3)c(N3CCC(C)CC3)nc12` (stereo not drawn) the z-score was -0.0747. Work on `Cc1cc2cc(CCNC(=O)CC(C)C)c(=O)[nH]c2cc1C` yielded a z-score of -0.854. `COc1ccc2nc(N3CCCC3)[nH]c2c1` showed a z-score of -0.0525. In the case of `COc1cc(OC)nc(Oc2ccccc2C(=O)Oc2ccc(F)cc2Cl)n1`, the z-score was -0.428. `O=C1N(c2ccc(Cl)cc2)C(c2ccc(Cl)cc2)N2CCCN12` (stereo not drawn) gave a z-score of -0.362. `Cc1cc(NC(=O)c2ccc(S(=O)(=O)N3CCOCC3)cc2)nc2c1c(=O)oc1ccccc12` gave a z-score of -0.153. `CC(C)OC(=O)c1c(F)c(F)c(N2CCOCC2)c(F)c1F` showed a z-score of 0.337. `O=C(NC(=S)N1CCCc2ccccc21)c1ccccc1` was tested, and the z-score was active: 4.54. In the case of `COc1ccccc1C(=O)N1CCN(c2cccc(Cl)c2)CC1`, the z-score was 0.229. `COc1ccc(OC)c(NC(=O)[C@H]2CC=CC[C@H]2C(=O)O)c1` gave a z-score of -0.0282. `CCOC(=O)c1nn(-c2ccc(C)cc2)c(C)c1C(C)=O` showed a z-score of 0.0525. `CC1=CCC(C(C)(C)NC(=O)c2ccccc2)C/C1=N\O` (stereo not drawn) gave a z-score of 0.125. Compound `C1=C(c2ccccc2)Nc2nnnn2C1` has a z-score of -0.0303. In the case of `COc1ccc(Br)cc1CNC(=O)Nc1cccs1`, the z-score was 1.49. With `O=C(NNC(=O)c1cccnc1)Nc1ccc(Cl)c(Cl)c1` the z-score was -0.192. With `COc1ccc(/C(C)=N/NC(=O)Cc2c(C)nc(C)[nH]c2=O)cc1` the z-score was -0.151. `COc1cccc(CNC(=O)CN(C)S(=O)(=O)c2cnc[nH]2)c1` gave a z-score of 1.34.
